Blank lines part the entries; values can stand above or below the binder they belong to.
What was measured:
[1] = target: T1, CD20 (human) (UniProt P11836); experiment: flow cytometry, Ramos cells loaded at 25 µg/ml, washed, kept at 37° C. or on ice
T1 sequence (looked up): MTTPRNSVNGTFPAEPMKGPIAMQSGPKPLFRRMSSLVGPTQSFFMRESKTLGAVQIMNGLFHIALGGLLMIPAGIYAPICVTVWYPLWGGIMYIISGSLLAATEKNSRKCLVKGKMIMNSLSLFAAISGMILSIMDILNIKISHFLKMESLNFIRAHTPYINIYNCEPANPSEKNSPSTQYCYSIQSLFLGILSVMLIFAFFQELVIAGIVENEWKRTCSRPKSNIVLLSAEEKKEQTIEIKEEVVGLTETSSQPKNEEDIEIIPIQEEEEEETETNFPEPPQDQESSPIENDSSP

[2] = target: T1, CD20 (human); experiment: flow cytometry, staining of WIL2S cells (CD20); protein made in 200 uM castanospermine
[3] = target: T1, CD20 (human); experiment: flow cytometry, staining of WIL2S cells (CD20); protein made in 10 uM kifunensine

- persistence of binding on the cell surface [1]: > 6 h
B1: 2Lm20-4 SMIP (Fc fusion, from a related filing)
chain: EIVLTQSPATLSLSPGERATLSCRASSSVSYIVWYQQKPGQAPRLLIYAPSNLASGIPARFSGSGSGTDFTLTISSLEPEDFAVYYCQQWSFNPPTFGQGTKVEIKDGGGSGGGGSGGGGSSQVQLVQSGAESKKPGASVKVSCKASGYTFTSYNMHWVRQAPGQGLEWMGAIYPGNGDTSYNQKFKGRVTMTRDTSTSTVYMELSSLRSEDTAVYYCARSYYSNSYWYFDLWGRGTLVTVSSS[in this place human IgG1 Fc with changes]

- EC50 (read off the curve) [2]: 10 nM
B2: S0129 CS200 (protein, from a related filing)
chain: EIVLTQSPATLSLSPGERATLSCRASSSVSYIVWYQQKPGQAPRLLIYAPSNLASGIPARFSGSGSGTDFTLTISSLEPEDFAVYYCQQWSFNPPTFGQGTKVEIKDGGGSGGGGSGGGGSSQVQLVQSGAESKKPGASVKVSCKASGYTFTSYNMHWVRQAPGQGLEWMGAIYPGNGDTSYNQKFKGRVTMTRDTSTSTVYMELSSLRSEDTAVYYCARSYYSNSYWYFDLWGRGTLVTVSSS[in this place human IgG1 Fc with changes]GCPPCPNSQVQLVQSGAESKKPGASVKVSCKASGYTFTSYNMHWVRQAPGQGLEWMGAIYPGNGDTSYNQKFKGRVTMTRDTSTSTVYMELSSLRSEDTAVYYCARSYYSNSYWYFDLWGRGTLVTVSSGGGGSGGGGSGGGGSASEIVLTQSPATLSLSPGERATLSCRASSSVSYIVWYQQKPGQAPRLLIYAPSNLASGIPARFSGSGSGTDFTLTISSLEPEDFAVYYCQQWSFNPPTFGQGTKVEIKD

- persistence of binding on the cell surface [1]: > 6 h
B3: humanized CD20×CD20 (2Lm20-4×2Lm20-4) scorpion (protein, from a related filing)
chain: EIVLTQSPATLSLSPGERATLSCRASSSVSYIVWYQQKPGQAPRLLIYAPSNLASGIPARFSGSGSGTDFTLTISSLEPEDFAVYYCQQWSFNPPTFGQGTKVEIKDGGGSGGGGSGGGGSSQVQLVQSGAESKKPGASVKVSCKASGYTFTSYNMHWVRQAPGQGLEWMGAIYPGNGDTSYNQKFKGRVTMTRDTSTSTVYMELSSLRSEDTAVYYCARSYYSNSYWYFDLWGRGTLVTVSSS[in this place human IgG1 Fc with changes]GCPPCPNSQVQLVQSGAESKKPGASVKVSCKASGYTFTSYNMHWVRQAPGQGLEWMGAIYPGNGDTSYNQKFKGRVTMTRDTSTSTVYMELSSLRSEDTAVYYCARSYYSNSYWYFDLWGRGTLVTVSSGGGGSGGGGSGGGGSASEIVLTQSPATLSLSPGERATLSCRASSSVSYIVWYQQKPGQAPRLLIYAPSNLASGIPARFSGSGSGTDFTLTISSLEPEDFAVYYCQQWSFNPPTFGQGTKVEIKD

- EC50 (read off the curve) [3]: 10 nM
B4: S0129 KF 10 (protein, from a related filing)
chain: EIVLTQSPATLSLSPGERATLSCRASSSVSYIVWYQQKPGQAPRLLIYAPSNLASGIPARFSGSGSGTDFTLTISSLEPEDFAVYYCQQWSFNPPTFGQGTKVEIKDGGGSGGGGSGGGGSSQVQLVQSGAESKKPGASVKVSCKASGYTFTSYNMHWVRQAPGQGLEWMGAIYPGNGDTSYNQKFKGRVTMTRDTSTSTVYMELSSLRSEDTAVYYCARSYYSNSYWYFDLWGRGTLVTVSSS[in this place human IgG1 Fc with changes]GCPPCPNSQVQLVQSGAESKKPGASVKVSCKASGYTFTSYNMHWVRQAPGQGLEWMGAIYPGNGDTSYNQKFKGRVTMTRDTSTSTVYMELSSLRSEDTAVYYCARSYYSNSYWYFDLWGRGTLVTVSSGGGGSGGGGSGGGGSASEIVLTQSPATLSLSPGERATLSCRASSSVSYIVWYQQKPGQAPRLLIYAPSNLASGIPARFSGSGSGTDFTLTISSLEPEDFAVYYCQQWSFNPPTFGQGTKVEIKD

From patent US8409577
